Measurements: the BET-seq Pho4 binding data (Le et al. 2018)
This is one part of the list. The energies were worked out here from pooled read counts, against the library average; single values are noisy.

target: T1, Pho4 (S. cerevisiae) (UniProt P07270); test: relative binding free energy (BET-seq); higher = weaker binding; details: reference: library average
T1 sequence: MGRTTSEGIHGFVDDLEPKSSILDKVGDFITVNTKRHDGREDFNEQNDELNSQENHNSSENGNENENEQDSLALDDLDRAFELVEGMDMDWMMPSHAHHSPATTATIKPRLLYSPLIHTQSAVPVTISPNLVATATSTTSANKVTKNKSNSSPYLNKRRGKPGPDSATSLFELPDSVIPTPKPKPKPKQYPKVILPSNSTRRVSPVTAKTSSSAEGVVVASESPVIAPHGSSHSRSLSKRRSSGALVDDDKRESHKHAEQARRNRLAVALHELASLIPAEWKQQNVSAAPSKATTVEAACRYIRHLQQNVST

| Sequence | relative binding free energy |
| --- | --- |
| TGGCGCACGTGGTTGC | -0.13 kcal/mol |
| AGCGTCACGTGGGATG | -0.03 kcal/mol |
| GTGCGCACGTGGCGTA | -0.18 kcal/mol |
| AGTAGCACGTGTTTGT | -0.02 kcal/mol |
| ATGTGCACGTGCGTCG | -0.02 kcal/mol |
| CGTTGCACGTGTCGGT | 0.11 kcal/mol |
| TTCGGCACGTGATAAT | 0.1 kcal/mol |
| TTCGGCACGTGATATG | -0.05 kcal/mol |
| TGTGGCACGTGTTGAC | -0.13 kcal/mol |
| CTGTACACGTGTAAGG | 0.15 kcal/mol |
| TATTACACGTGTGTGA | 0.17 kcal/mol |
| AAGAGCACGTGGGGGT | -0.13 kcal/mol |
| TTTCTCACGTGGGCTT | 0.15 kcal/mol |
| TCCGGCACGTGTTAGG | -0.01 kcal/mol |
| ATTGGCACGTGGTCGC | -0.33 kcal/mol |
| AGTTGCACGTGTTAGG | 0.05 kcal/mol |
| AAGTCCACGTGATTGG | 0.33 kcal/mol |
| TGTGGCACGTGGGCGT | -0.21 kcal/mol |
| CAAGACACGTGGTGGT | -0.17 kcal/mol |
| TTAGACACGTGCGCGG | -0.13 kcal/mol |
| CGGGACACGTGAAGTT | 0.35 kcal/mol |
| CAGGGCACGTGTATTA | 0.07 kcal/mol |
| GGGAGCACGTGGGGCG | -0.1 kcal/mol |
| AGGCGCACGTGCGGTT | -0.25 kcal/mol |
| ATGTTCACGTGTCTGG | 0.23 kcal/mol |

| Sequence | relative binding free energy |
| --- | --- |
| GGCCGCACGTGAGGTG | 0.06 kcal/mol |
| TATGACACGTGGAGAG | 0 kcal/mol |
| TGAGTCACGTGCTCGG | 0.15 kcal/mol |
| AAGGTCACGTGAGTTA | 0.16 kcal/mol |
| AATGTCACGTGCTGGT | 0.05 kcal/mol |
| GAAGTCACGTGTGGAA | 0.12 kcal/mol |
| AGGGTCACGTGTCGGT | 0.19 kcal/mol |
| TTATGCACGTGTCCGT | -0.02 kcal/mol |
| CTTTTCACGTGGTAAT | 0.18 kcal/mol |
| CGTATCACGTGTTTAG | 0.14 kcal/mol |
| CTTGTCACGTGGTGGA | 0.03 kcal/mol |
| TAAAACACGTGGTATT | -0.1 kcal/mol |
| AGTTACACGTGGGGCC | 0.02 kcal/mol |
| GTTGTCACGTGGATTA | 0.14 kcal/mol |
| TGGGTCACGTGATGCG | 0.15 kcal/mol |
| GCTATCACGTGTGTTT | 0.24 kcal/mol |
| AGGGACACGTGGGTAG | -0.17 kcal/mol |
| GTATTCACGTGAGATA | 0.39 kcal/mol |
| ATGCGCACGTGCCGGG | -0.06 kcal/mol |
| AGGATCACGTGCGTTT | 0.2 kcal/mol |
| AGGTGCACGTGGTAAT | -0.17 kcal/mol |
| TTGGCCACGTGAGGTC | 0.33 kcal/mol |
| GGTTGCACGTGTCTGT | -0.03 kcal/mol |
| GGATACACGTGAAGGG | 0.27 kcal/mol |
| CATATCACGTGTGTTT | 0.07 kcal/mol |

| Sequence | relative binding free energy |
| --- | --- |
| TTGTCCACGTGGATTA | 0.04 kcal/mol |
| TGTTACACGTGGACTA | 0.14 kcal/mol |
| TGGGTCACGTGTGACG | 0.15 kcal/mol |
| GCTCGCACGTGGGATG | -0.11 kcal/mol |
| AGTTACACGTGCGTTG | 0.08 kcal/mol |
| CGTTGCACGTGGGTCG | -0.17 kcal/mol |
| GGCGCCACGTGTGGTG | 0.08 kcal/mol |
| TGCTTCACGTGGGTTC | -0.03 kcal/mol |
| TGGGTCACGTGGTGCT | 0.04 kcal/mol |
| CTAAGCACGTGTTTAG | -0.08 kcal/mol |
| TGTAGCACGTGTAAAT | 0.15 kcal/mol |
| GTTAACACGTGAGGTA | 0.19 kcal/mol |
| TTGTACACGTGCCGGG | -0.04 kcal/mol |
| TATTCCACGTGTTTAG | 0.13 kcal/mol |
| GAGGGCACGTGGAGAA | -0.06 kcal/mol |
| CTTTTCACGTGGTAGC | 0.31 kcal/mol |
| GGTCTCACGTGGTGAA | 0.2 kcal/mol |
| CGTTTCACGTGAAGGT | 0.32 kcal/mol |
| TTCTGCACGTGAGGAG | 0.29 kcal/mol |
| CGGCGCACGTGCGGGG | -0.3 kcal/mol |
| TATTACACGTGGGGGT | -0.1 kcal/mol |
| AGTACCACGTGTTTGG | -0.09 kcal/mol |
| ATCTTCACGTGTATGG | 0.15 kcal/mol |
| TTCGTCACGTGTGCTA | 0.07 kcal/mol |
| TTGTTCACGTGCAAGG | 0.33 kcal/mol |

| Sequence | relative binding free energy |
| --- | --- |
| TTGAACACGTGTTTGA | 0.14 kcal/mol |
| TGGGGCACGTGAAGAA | 0.1 kcal/mol |
| TTGTACACGTGTCGTC | 0.12 kcal/mol |
| CCTGGCACGTGAGGTT | 0.17 kcal/mol |
| AATGGCACGTGCTAGG | -0.12 kcal/mol |
| AGGATCACGTGATTTG | 0.22 kcal/mol |
| CTAGTCACGTGTAGTA | 0.09 kcal/mol |
| GGTTTCACGTGGTGAT | 0.35 kcal/mol |
| GTAGTCACGTGCGAGT | 0.07 kcal/mol |
| GGATGCACGTGAGCTA | 0.4 kcal/mol |
| AGTGGCACGTGAGCAT | 0.04 kcal/mol |
| ATATACACGTGTGTAT | 0.05 kcal/mol |
| TTCGGCACGTGTTGCT | -0.12 kcal/mol |
| AAGGGCACGTGGGCTT | -0.21 kcal/mol |
| ATGGGCACGTGGGTGC | -0.14 kcal/mol |
| TATTACACGTGGAGTG | 0.01 kcal/mol |
| ACGTTCACGTGGTCGG | 0.14 kcal/mol |
| AGGTGCACGTGCATGT | -0.01 kcal/mol |
| TGTGACACGTGGGTGT | -0.11 kcal/mol |
| TCTATCACGTGGAATT | 0.32 kcal/mol |
| ATTTGCACGTGTTCAT | 0.01 kcal/mol |
| TTTTGCACGTGTGTAG | 0.09 kcal/mol |
| TCTTTCACGTGAGTGG | 0.37 kcal/mol |
| GGACGCACGTGAAGTG | 0.3 kcal/mol |
| TTGGGCACGTGTTATG | -0.11 kcal/mol |

| Sequence | relative binding free energy |
| --- | --- |
| ATGGGCACGTGTTGGA | -0.03 kcal/mol |
| TTTGTCACGTGAAGTT | 0.49 kcal/mol |
| GATGGCACGTGCTTTG | -0.01 kcal/mol |
| GAAGGCACGTGGGTAG | -0.09 kcal/mol |
| GGCGCCACGTGGAAGG | 0.01 kcal/mol |
| AGGGGCACGTGAAGCG | 0.14 kcal/mol |
| GGGAGCACGTGTGCAT | -0.01 kcal/mol |
| GCGGTCACGTGTGTTG | 0.07 kcal/mol |
| GGTTGCACGTGGGGCT | -0.04 kcal/mol |
| TTTAACACGTGTGATT | 0.1 kcal/mol |
| GCGTGCACGTGTTGAG | 0.14 kcal/mol |
| GGCGGCACGTGGTAAA | -0.08 kcal/mol |
| ATTTCCACGTGGAGTT | 0.13 kcal/mol |
| GTGCGCACGTGGGGCT | -0.28 kcal/mol |
| GGGAACACGTGAAAGG | 0.19 kcal/mol |
| AGGCTCACGTGAGAGG | 0.25 kcal/mol |
| AGTCTCACGTGCTGGG | 0.15 kcal/mol |
| TTATACACGTGTATTC | 0.1 kcal/mol |
| GCGAACACGTGGAGGG | -0.08 kcal/mol |
| GTCTCCACGTGAGGGG | 0.29 kcal/mol |
| TTTGACACGTGCGTCG | -0.14 kcal/mol |
| TCGTGCACGTGGTCTG | -0.26 kcal/mol |
| TATGGCACGTGGATGA | 0.01 kcal/mol |
| TTGACCACGTGAAGGG | 0.31 kcal/mol |
| GATTGCACGTGAAAGG | 0.38 kcal/mol |

| Sequence | relative binding free energy |
| --- | --- |
| AATAGCACGTGGTGAG | -0.27 kcal/mol |
| TTTCACACGTGGCGGT | 0.08 kcal/mol |
| GTTTTCACGTGTAGTG | 0.26 kcal/mol |
| GGCAGCACGTGTGTTT | -0.1 kcal/mol |
| AATAACACGTGGGGAT | -0.16 kcal/mol |
| TGTAGCACGTGTTTGT | -0.02 kcal/mol |
| GGTGACACGTGGTTAA | -0.07 kcal/mol |
| GTTCGCACGTGTGCAT | 0.21 kcal/mol |
| CTTTTCACGTGACTTG | 0.31 kcal/mol |
| TTGGACACGTGGTTAC | -0.06 kcal/mol |
| TAATACACGTGTTTGT | -0.07 kcal/mol |
| GTAGGCACGTGGCCGT | -0.09 kcal/mol |
| GTGTACACGTGGAGCG | -0.14 kcal/mol |
| GTAGGCACGTGGAATA | 0 kcal/mol |
| GTCAGCACGTGTTGGT | 0.04 kcal/mol |
| CGGAGCACGTGGTTTT | -0.08 kcal/mol |
| GGTTACACGTGATGGA | 0.42 kcal/mol |
| GGTCACACGTGGATGT | -0.02 kcal/mol |
| ATGGGCACGTGGTAGT | -0.18 kcal/mol |
| TGAAGCACGTGAGTTG | 0.13 kcal/mol |
| TAAAGCACGTGTTTGG | -0.07 kcal/mol |
